Read counts are not given, so values of variants with three or more changes are uncertain.
B1: CPEB3 Ribozyme (parent)
chain: UAACAGGGGGCCACAGCAGAAGCGUUCACGUCGCAGCCCCUGUCAGAUUCUGGUGAAUCUGCGAAUUCUGCUGUAUAUCUC

Variants of: B1
Assay: self-cleavage, relative activity (ratio to wild type); higher = more cleavage; in vitro, sequencing
How it was run: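 Relative activity compares each variant's cleaved/total read fraction with that of the unmutated ribozyme. To get these fractions, barcoded CPEB3 ribozyme libraries from rounds of error-prone PCR were transcribed with T7 RNA polymerase for 5 hours at 37°C and then given 15 min of DNase I treatment before EDTA was added. The RNAs were reverse transcribed with template switching and sequenced on Illumina, and DNA sequencing linked barcodes to variants. A minimum of 5 reads applied, and three batches were averaged.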

Variant	self-cleavage
A21G G22C U43C U78C	0.08
A21G G22U G33C G55C	0.12
A21G G24A A28C A64G A75G	0.05
A21G G24A A35U G36A A45U A57G	0.15
A21G G24A C40U A56G	0.39
A21G G24A U26C A45U U69C	0.09
A21G G24A U26C U74A	0.29
A21G G24A U26C U80A	0.11
A21G G24A U31A U43C U48A U58C	0.2
A21G G24A U43C U48A	0.19
A21G G24A U66C	0.09
A21G G24A U69A	0.14
A21G G24A U74A	0.32
A21G G24C A35G A45G A64U	0.05
A21G G24C C32U A45G A56G U66C	0.08
A21G G24C G36C	0.16
A21G G24C U31C C62U	0.16
A21G G24C U43C U51A	0.11
A21G G24C U60A U80C	0.07
A21G G30A A45U U54C U69G	0.06
A21G G30A A56G	0.38
A21G G30A A56U U66C	0.21
A21G G30A C34G U41C U51A	0.1
A21G G30A C37A U51G A57G U69C	0.21

Variant	self-cleavage
A21G G30A C39U G42A U43C	0.08
A21G G30A G33C U80C	0.1
A21G G30A U43A	0.26
A21G G30A U51C	0.1
A21G G30A U54C A56U U66C U78A	0.05
A21G G30A U76C U78C	0.07
A21G G30C U41C U69A	0.19
A21G G30U A77G	0.18
A21G G30U C38U U48C	0.08
A21G G30U U51C U69A	0.42
A21G G30U U69A	0.43
A21G G33A A35U U51A A64G U72G	0.05
A21G G33A C71G	0.08
A21G G33A G52A U76A	0.1
A21G G33A U51C A56G	0.05
A21G G33A U66G	0.08
A21G G33A U76A	0.14
A21G G33C U43C U60A U67C	0.09
A21G G33C U43C U67C U72A	0.05
A21G G33U A45U C62U	0.11
A21G G33U A56U U58C U60C A65C	0.05
A21G G33U C38A U41C U58A A64G C68G	0.07
A21G G36A A56G	0.17
A21G G36A C40U	0.1

Variant	self-cleavage
A21G G36A U60C U78C	0.05
A21G G36A U69A	0.08
A21G G36A U69C	0.13
A21G G36C A75U	0.05
A21G G36C U41A C44A A45G	0.11
A21G G42A A47C A64G U76C	0.07
A21G G42A A47G	0.07
A21G G42A A75G U80C	0.05
A21G G42A U78C	0.18
A21G G42U G53A	0.26
A21G G42U U74C A75U	0.61
A21G G46U U49C	0.19
A21G G46U U51C A56G	0.17
A21G G52A C62A	0.49
A21G G52C A56G	0.73
A21G G52U A57G	0.53
A21G G53U A57U U67C U72A	0.1
A21G G53U A77G	0.61
A21G G55A A56G	0.36
A21G G55C A56G A57G U66A U80C	0.12
A21G G55C A75G	0.52
A21G G61A A65G A77U	0.12
A21G G61U G63C U72C	0.21
A21G G63C A75U U78C	0.51

Variant	self-cleavage
A21G G63U A64C A77U	0.09
A21G U25A A28G U41A U51A	0.35
A21G U25A A35G U69A U76A	0.03
A21G U25A A45C U66C	0.15
A21G U25A A47G U49C	0.03
A21G U25A A47G U54C	0.18
A21G U25A A64G C79U	0.3
A21G U25A C40U U43C G46C	0.16
A21G U25A G30A U69A U74C	0.18
A21G U25A G30U C39U A45G A64G U80C	0.09
A21G U25A G33A A45U	0.05
A21G U25A G33A U76C	0.06
A21G U25A G52U	0.16
A21G U25A G61A	0.17
A21G U25A U26C A35G	0.07
A21G U25A U26C U54C U69A	0.04
A21G U25A U31A U80C	0.48
A21G U25A U31C G36U	0.05
A21G U25A U41C A64G U80C	0.37
A21G U25A U41C U51A C79U	0.02
A21G U25A U48C A65G U67C	0.08
A21G U25A U51G A56U A75U	0.08
A21G U25A U51G U54A U67C A77G	0.08
A21G U25A U54C	0.12

Variant	self-cleavage
A21G U25A U54G	0.32
A21G U25A U78C	0.19
A21G U25C A28G A35U U72C	0.07
A21G U25C A28G U41A A64G	0.23
A21G U25C A28U A35G U76C	0.19
A21G U25C A28U G36U U48C U76C	0.04
A21G U25C A35G C71A	0.06
A21G U25C A35U C40A U67C	0.15
A21G U25C A35U U43C U67C	0.05
A21G U25C A35U U74C	0.3
A21G U25C A45C A64G A65G U74C	0.05
A21G U25C A45U	0.35
A21G U25C A57G U72C	0.14
A21G U25C A65C	0.36
A21G U25C A65G	0.12
A21G U25C A65G U67C	0.14
A21G U25C A65G U76C	0.05
A21G U25C A65G U80G	0
A21G U25C A65U U72C U78C	0.06
A21G U25C A75U	0.37
A21G U25C C29A U51C U60A A64G G70U	0.04
A21G U25C C29G	0.06
A21G U25C C29U A56G A64G U69C U80C	0.03
A21G U25C C29U U41A	0.11

Variant	self-cleavage
A21G U25C C32U G63C	0.07
A21G U25C C32U U49C U66C C71U	0.02
A21G U25C C39A U43C U54C	0.21
A21G U25C C40G U41A U72C A77G	0.25
A21G U25C C44U U72A	0.34
A21G U25C C50A	0.22
A21G U25C U26C A45G	0.33
A21G U25C U26C U49C A64G U72C	0.24
A21G U25C U31A	0.33
A21G U25C U31A U41C G55A U72A	0.12
A21G U25C U31C	0.53
A21G U25C U41A U48A G53C U67A U80C	0.17
A21G U25C U41A U51G	0.19
A21G U25C U41C	0.34
A21G U25C U41C U48C U67C U72C	0.25
A21G U25C U41C U60C	0.14
A21G U25C U43A A64G U76C	0.16
A21G U25C U43A U60C U72C A75G	0.11
A21G U25C U43C	0.04
A21G U25C U43C A64G U80C	0.54
A21G U25C U43C A64U U78C	0.05
A21G U25C U43C G52A A64U U78A	0.08
A21G U25C U43C U51A	0.11
A21G U25C U43C U51C	0.37

Variant	self-cleavage
A21G U25C U43C U80C	0.47
A21G U25C U48A U60A U76C A77G	0.04
A21G U25C U49C U74C U80C	0.31
A21G U25C U51A A57G U69C U78C	0.11
A21G U25C U51A U60C	0.06
A21G U25C U51C A64G U80C	0.07
A21G U25C U54A A77C	0.23
A21G U25C U58C A64G	0.36
A21G U25C U58G C62G U69C	0.06
A21G U25C U60A A64G	0.13
A21G U25C U60C	0.21
A21G U25C U60C A65G	0.02
A21G U25C U69C A77C U78C	0.08
A21G U25C U72A	0.49
A21G U25C U72C	0.36
A21G U25C U80A	0.36
A21G U25G C39G U66A	0.25
A21G U25G U26A G42A	0.06
A21G U26A A28G C29U A64G U72C	0.07
A21G U26A A35U	0.31
A21G U26A A47G U54A U69C	0.36
A21G U26A A47G U60G U74C A77G	0.15
A21G U26A A47U U49C A75G	0.17

From the RNAGym collection of RNA variant scans (doi:10.1093/nar/gkz1192)
